Laboratory results taken from paper PMC7915527, “Development of a Liquid Chromatography/Mass Spectrometry-Based Inhibition Assay for the Screening of Steroid 5-α Reductase in Human and Fish Cell Lines” (Molecules, 2021).

How the values were obtained:
[1] = system: 5AR (SRD5A1 and SRD5A2) in SW-13 cells; settings: for IC50: read-out: IC50 Value, testosterone at KM, cotreatment 3 h, 95% CI in parentheses
[2] = system: 5AR in non-vector HEK-293 cells; settings: testosterone 0 to 50 µM, 95% CI in parentheses

| Compound | IC50 [1] | Km [2] | Vmax [2] | Vmax ([1]; DHT formation from testosterone 0 to 50 µM, 95% CI in parentheses) | Km ([1]; testosterone 0 to 50 µM, 95% CI in parentheses) |
| --- | --- | --- | --- | --- | --- |
| CC(C)(C)NC(=O)[C@H]1CC[C@H]2[C@@H]3CC[C@H]4NC(=O)C=C[C@]4(C)[C@H]3CC[C@]12C [Finasteride, finasteride] | 214 nM | – | – | – | – |
| C[C@]12CC[C@H]3[C@@H](CCC4=CC(=O)CC[C@@]43C)[C@@H]1CC[C@@H]2O [testosterone] | – | 0.00756 µM | 4.473 (4.29–4.66) nmol L^−1 h^−1 | 29.35 (27.94–30.90) nmol L^−1 h^−1 | 0.0194 µM |
| C[C@]12C=CC(=O)N[C@@H]1CC[C@@H]1[C@@H]2CC[C@]2(C)[C@@H](C(=O)Nc3cc(C(F)(F)F)ccc3C(F)(F)F)CC[C@@H]12 [Dutasteride, dutasteride] | 4.75 nM | – | – | – | – |
